Among the data in paper PMC7758049 are binding values, retold here.

Positions count from the first letter of the chain named. No constants are given. Whether binding was seen depends on the method and setting. Where a sequence is shown, tags or fusion partners need not be part of it.

The target of test [1] is T1, GAL4BD-c-myc-DHR1-H593Y, R596C, E831K (S. cerevisiae) (UniProt Q04217).
T1 sequence: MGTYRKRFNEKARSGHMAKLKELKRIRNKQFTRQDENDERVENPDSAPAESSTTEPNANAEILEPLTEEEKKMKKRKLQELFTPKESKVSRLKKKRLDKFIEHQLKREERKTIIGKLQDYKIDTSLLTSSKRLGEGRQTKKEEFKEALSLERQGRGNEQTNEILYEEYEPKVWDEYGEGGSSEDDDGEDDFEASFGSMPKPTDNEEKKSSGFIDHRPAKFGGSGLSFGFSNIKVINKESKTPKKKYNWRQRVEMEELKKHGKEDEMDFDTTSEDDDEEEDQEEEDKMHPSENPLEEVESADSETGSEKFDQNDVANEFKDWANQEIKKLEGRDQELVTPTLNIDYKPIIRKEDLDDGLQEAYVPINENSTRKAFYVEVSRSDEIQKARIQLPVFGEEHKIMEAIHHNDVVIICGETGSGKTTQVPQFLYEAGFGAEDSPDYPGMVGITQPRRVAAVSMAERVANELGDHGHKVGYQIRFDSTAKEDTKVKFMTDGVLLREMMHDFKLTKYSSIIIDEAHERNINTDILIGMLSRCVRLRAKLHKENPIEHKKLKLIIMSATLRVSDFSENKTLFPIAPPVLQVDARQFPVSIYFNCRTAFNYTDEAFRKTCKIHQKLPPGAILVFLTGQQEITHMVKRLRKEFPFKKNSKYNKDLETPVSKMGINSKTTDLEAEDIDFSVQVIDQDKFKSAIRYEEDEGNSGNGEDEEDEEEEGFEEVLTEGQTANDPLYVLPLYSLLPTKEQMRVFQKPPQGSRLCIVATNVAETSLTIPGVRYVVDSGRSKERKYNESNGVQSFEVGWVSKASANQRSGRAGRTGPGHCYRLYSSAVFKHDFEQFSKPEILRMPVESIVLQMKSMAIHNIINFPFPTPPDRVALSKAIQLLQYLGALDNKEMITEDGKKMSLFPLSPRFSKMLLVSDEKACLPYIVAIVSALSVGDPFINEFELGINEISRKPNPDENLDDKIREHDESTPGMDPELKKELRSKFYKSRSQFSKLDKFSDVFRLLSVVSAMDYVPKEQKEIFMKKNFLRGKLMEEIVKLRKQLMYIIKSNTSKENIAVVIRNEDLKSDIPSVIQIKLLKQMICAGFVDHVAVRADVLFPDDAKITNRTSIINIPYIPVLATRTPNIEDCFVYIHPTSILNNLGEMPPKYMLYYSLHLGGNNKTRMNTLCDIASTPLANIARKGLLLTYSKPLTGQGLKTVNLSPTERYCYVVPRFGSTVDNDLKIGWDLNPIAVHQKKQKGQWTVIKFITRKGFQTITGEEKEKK
Nature of the test: two-hybrid; AD-HA-Utp14 with BD-myc-Dhr1 (wild type or mutant); growth on SD-Leu-Trp-His- with 10 mM 3AT.

Test [2] has as its target T2, GAL4BD-c-myc-DHR1-E360K, E397D, E402G, D408Y (S. cerevisiae) (UniProt Q04217).
T2 sequence: T1 sequence with E360K, E397D, E402G, D408Y, Y593H, C596R, K831E
The test is described as above.

B1: AD-HA-Utp14 (protein, UniProt Q04500 1-899)
chain: MAKKKSKSRSKSSRRVLDALQLAEREINGEFDNSSDNDKRHDARRNGTVVNLLKRSKGDTNSDEDDIDSESFEDEELNSDEALGSDDDYDILNSKFSQTIRDKKENANYQEEEDEGGYTSIDEEDLMPLSQVWDMDEKTAQSNGNDDEDASPQLKLQDTDISSESSSSEESESESEDDEEEEDPFDEISEDEEDIELNTITSKLIDETKSKAPKRLDTYGSGEANEYVLPSANAASGASGKLSLTDMMNVIDDRQVIENANLLKGKSSTYEVPLPQRIQQRHDRKAAYEISRQEVSKWNDIVQQNRRADHLIFPLNKPTEHNHASAFTRTQDVPQTELQEKVDQVLQESNLANPEKDSKFEELSTAKMTPEEMRKRTTEMRLMRELMFREERKARRLKKIKSKTYRKIKKKELMKNRELAAVSSDEDNEDHDIARAKERMTLKHKTNSKWAKDMIKHGMTNDAETREEMEEMLRQGERLKAKMLDRNSDDEEDGRVQTLSDVENEEKENIDSEALKSKLGKTGVMNMAFMKNGEAREREANKETLRQLRAVENGDDIKLFESDEEETNGENIQINKGRRIYTPGSLESNKDMNELNDHTRKENKVDESRSLENRLRAKNSGQSKNARTNAEGAIIVEEESDGEPLQDGQNNQQDEEAKDVNPWLANESDEEHTVKKQSSKVNVIDKDSSKNVKAMNKMEKAELKQKKKKKGKSNDDEDLLLTADDSTRLKIVDPYGGSDDEQGDNVFMFKQQDVIAEAFAGDDVVAEFQEEKKRVIDDEDDKEVDTTLPGWGEWAGAGSKPKNKKRKFIKKVKGVVNKDKRRDKNLQNVIINEKVNKKNLKYQSSAVPFPFENREQYERSLRMPIGQEWTSRASHQELIKPRIMTKPGQVIDPLKAPFK
B1: the binding result in test [1] and in test [2] was “no binding” each time.
